This is one part of the list. At the low end of the ranking the order means little.

This assay has as its target T1, ELK1 (UniProt P19419).
T1 sequence: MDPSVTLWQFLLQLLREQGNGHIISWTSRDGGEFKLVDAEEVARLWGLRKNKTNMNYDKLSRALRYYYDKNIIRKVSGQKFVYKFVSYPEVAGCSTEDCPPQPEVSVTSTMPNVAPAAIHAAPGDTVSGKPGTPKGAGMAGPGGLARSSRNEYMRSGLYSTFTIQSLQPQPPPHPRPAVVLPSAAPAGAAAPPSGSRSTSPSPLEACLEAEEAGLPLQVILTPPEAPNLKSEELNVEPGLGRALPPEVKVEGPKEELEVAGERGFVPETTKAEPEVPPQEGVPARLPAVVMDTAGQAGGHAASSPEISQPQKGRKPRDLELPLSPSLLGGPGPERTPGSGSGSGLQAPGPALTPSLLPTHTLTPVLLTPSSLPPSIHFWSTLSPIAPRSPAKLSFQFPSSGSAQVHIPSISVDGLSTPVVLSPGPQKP
In words: custom PBM. As to conditions: custom protein-binding microarray; buffer, salt, pH and temperature not stated; high values mean tight binding; double strand, one strand shown.
As to “GATTAATTTCTGCCCTTATTCGCACGTTCCATAACAGTCTTGATTCGCTTGACGCTGCTG”, the binding signal (log fluorescence intensity) turned out to be 8.74.
As to “TAAAGGGAAGACGGTTGTGGTAGTTCCGGGTATAAAGTCTTGATTCGCTTGACGCTGCTG”, the binding signal (log fluorescence intensity) is 11.3.
“TAAAGGGAAGACGGTTGTGGTATTTCCGGGTATTAAGTCTTGATTCGCTTGACGCTGCTG”: the binding signal (log fluorescence intensity) came out at 11.5.
The same measure for “CGGACGTGTCGTAAACGTCGGATATCCGGTTCTTCTGTCTTGATTCGCTTGACGCTGCTG”: 12.2; for “GGAAAAAGGCCCAGAGTAACACCGGAAGTGGGCTTAGTCTTGATTCGCTTGACGCTGCTG”: 11; for “GCTGGTGCGGTGCATACCCCACCGGATGTGACCCCGGTCTTGATTCGCTTGACGCTGCTG”: 10.2.
On to “CTGAGACTTGACCCAACTCTGCCACGTGGGTCGTTTGTCTTGATTCGCTTGACGCTGCTG”, for which the binding signal (log fluorescence intensity) amounted to 8.86.
For “GTGTATACGATCCCATCCAACACACGTGTTAAAATGGTCTTGATTCGCTTGACGCTGCTG”, the binding signal (log fluorescence intensity) was determined as 9.01.
The same measure for “CTGGAACTTGACCCAACTCTGCCACGTGGGTCGTTTGTCTTGATTCGCTTGACGCTGCTG”: 8.79; for “GCTGCTGCGCTGCATACCCCACCGGATGTGACCCCGGTCTTGATTCGCTTGACGCTGCTG”: 10.2.
In the case of “CTGGGACTTGACCCAACTCTGCCACGTAGGTCGTTTGTCTTGATTCGCTTGACGCTGCTG”, the binding signal (log fluorescence intensity) stood at 8.81.
Consider “GATTAATTTCTGCCCTTATTCGCACCTGCCATAACAGTCTTGATTCGCTTGACGCTGCTG”, for which the binding signal (log fluorescence intensity) was 8.92.
On to “CCCGGCTACCAGCTCCACCCACTTCAGGCCTTGTAGGTCTTGATTCGCTTGACGCTGCTG”, for which the binding signal (log fluorescence intensity) came out at 8.73.
The same measure for “TGTCGGGTAAGGGAATGTAGATCACGTGAATGAATAGTCTTGATTCGCTTGACGCTGCTG”: 8.98; for “GCTGCTGCGGTGCATACCCCACCGGATGTGACCCCCGTCTTGATTCGCTTGACGCTGCTG”: 10.1.
In the case of “TACTGACTTATATATGCGAATGTACATGAATAGACCGTCTTGATTCGCTTGACGCTGCTG”, the binding signal (log fluorescence intensity) stood at 9.03.
Consider “GTGTATAGGATCCCATCCAACACACGTGTTAAACTGGTCTTGATTCGCTTGACGCTGCTG”, for which the binding signal (log fluorescence intensity) came to 8.9.
As to “TGTCGGGTAAGGGAATGTAGATCACGTGAACGAAAAGTCTTGATTCGCTTGACGCTGCTG”, the binding signal (log fluorescence intensity) came out at 8.97.
Regarding “GCTGCTGCGGTGCATACCCCACCGGATGTGACGCCGGTCTTGATTCGCTTGACGCTGCTG”, the binding signal (log fluorescence intensity) is 10.1.
On to “CACAATTTTTACAGTAATGTAGCACGGGTAACTCCTGTCTTGATTCGCTTGACGCTGCTG”, for which the binding signal (log fluorescence intensity) worked out at 8.87.
With “TACTGACTTATATATGCGAATGCACAGGAATAGACCGTCTTGATTCGCTTGACGCTGCTG”, the binding signal (log fluorescence intensity) worked out at 8.83.
Consider “GTGTATAGGATCCCATCCCACACACGTGTTAAAATGGTCTTGATTCGCTTGACGCTGCTG”, for which the binding signal (log fluorescence intensity) came out at 9.07.
The same measure for “TACTGACTTATATATGCGAATGCACATGAATACACCGTCTTGATTCGCTTGACGCTGCTG”: 8.85; for “CAGCATAGGACTTCTTCCCTGAAGCAATTGATAACAGTCTTGATTCGCTTGACGCTGCTG”: 8.91.
As for “GGAAAAAGGCCCCGGGTAACACCGGAAGTGGGCTTAGTCTTGATTCGCTTGACGCTGCTG”, the binding signal (log fluorescence intensity) came to 12.6.
The same measure for “TCCGGCTACCTGCTCCACCCACTTCAGGCCTTGTAGGTCTTGATTCGCTTGACGCTGCTG”: 8.74; for “CAGCATAGGACTACTTCCCTGAAGCAATTGATAACCGTCTTGATTCGCTTGACGCTGCTG”: 9.22; for “CAGCAGAGGACTTCTTCCCTGAAGCAATTGATAACCGTCTTGATTCGCTTGACGCTGCTG”: 8.97.
With “TACTGACTTATATATGCGAATGCACATGAACAGACCGTCTTGATTCGCTTGACGCTGCTG”, the binding signal (log fluorescence intensity) is 8.97.
For the sequence “CTGGGACTCGACCCAACTCTGCCACGTGGGTCGTTTGTCTTGATTCGCTTGACGCTGCTG”, the binding signal (log fluorescence intensity) was determined as 8.94.
The same measure for “GATTAATTTCTGCCCTTATTCGCACGTGTCATAACAGTCTTGATTCGCTTGACGCTGCTG”: 9.05; for “TACTGACTTATATATGCGAACGCACATGAATAGACCGTCTTGATTCGCTTGACGCTGCTG”: 8.74.
Take “GATTAATTTCTGCCCTTATTCGCACGTGCGATAACAGTCTTGATTCGCTTGACGCTGCTG”: the binding signal (log fluorescence intensity) stood at 8.75.
As to “CTGGGACTTGACCCAACTCTGACACGTGGGTCGTTTGTCTTGATTCGCTTGACGCTGCTG”, the binding signal (log fluorescence intensity) was determined as 8.86.
The same measure for “GTGTATAGGATCCCTTCCAACACACGTGTTAAAATGGTCTTGATTCGCTTGACGCTGCTG”: 8.96; for “CTGCATAGGACTTCTTCCCTGAAGCAATTGATAACCGTCTTGATTCGCTTGACGCTGCTG”: 8.94.
Consider “GTGTGTAGGATCCCATCCAACACACGTGTTAAAATGGTCTTGATTCGCTTGACGCTGCTG”, for which the binding signal (log fluorescence intensity) was determined as 8.82.
The same measure for “TACTGACTTTTATATGCGAATGCACATGAATAGACCGTCTTGATTCGCTTGACGCTGCTG”: 8.97.
With “TAGAGGGAAGACGGTTGTGGTAGTTCCGGGTATTAAGTCTTGATTCGCTTGACGCTGCTG”, the binding signal (log fluorescence intensity) stood at 11.2.
In the case of “TGTCGGGTAAGGGAATGTGGATCACGTGAATGAAAAGTCTTGATTCGCTTGACGCTGCTG”, the binding signal (log fluorescence intensity) worked out at 8.96.

The record behind these values is PMC6602471.
